{"source": "the supplement of paper PMC8728848", "binders": {"B1": {"name": "RVL (Remusatia vivipara), B5LYJ9 (protein)", "chain": "MAKLLLFLLPAILGLLVPRSAVALGTNYLLSGQTLDTEGHLKNGDFDLVMQDDCNLVLYNGNWQSNTANNGRDCKLTLTDYGELVIKNGDGSTVWKSGAQSVKGNYAAVVHPDGRLVVLGPSVFKIDPWVRGLNSLRFRNIPFTNNLLFSGQVLYGDGRLTAKNHQLVMQGDCNLVLYGGKYGWQSNTHGNGEHCFLRLNHKGELIIKDDDFKTIWSSRSSSKQGEYVLILQDDGFGVIYGPAIFETSSKRSIAAS"}}, "test_in_all_cases": "glycan array binding signal (z-score within array); higher = stronger binding", "conditions_in_all_cases": "glycan notation: IUPAC condensed, linker removed", "key": {"GlcNAc(b1-3)Man": {"biological_target": "GlcNAc(b1-3)Man", "outline": "(§1)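 Arrays were curated from the Consortium for Functional Glycomics database, 3228 in total, and kept only where the protein sequence was available. Binding is expressed as a within-array Z-score. This score was averaged across arrays of the same protein sequence at different concentrations or buffers and across linkers, and negative values can be read as non-binding.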"}, "[1]": {"biological_target": "GlcNAc(b1-3)[GlcNAc(b1-4)][GlcNAc(b1-6)]GlcNAc", "outline": "as §1"}, "[2]": {"biological_target": "GlcNAc(b1-3)[GlcNAc(b1-6)]Gal(b1-4)GlcNAc", "outline": "as §1"}, "[3]": {"biological_target": "GlcNAc(b1-3)[GlcNAc(b1-6)]GalNAc", "outline": "as §1"}, "[4]": {"biological_target": "GlcNAc(b1-4)Gal(b1-4)GlcNAc", "outline": "as §1"}, "GlcNAc(b1-4)GlcNAc": {"biological_target": "GlcNAc(b1-4)GlcNAc", "outline": "as §1"}, "[5]": {"biological_target": "GlcNAc(b1-4)GlcNAc(b1-4)GlcNAc", "outline": "as §1"}, "[6]": {"biological_target": "GlcNAc(b1-4)GlcNAc(b1-4)GlcNAc(b1-4)GlcNAc(b1-4)GlcNAc", "outline": "as §1"}, "[7]": {"biological_target": "GlcNAc(b1-4)GlcNAc(b1-4)GlcNAc(b1-4)GlcNAc(b1-4)GlcNAc(b1-4)GlcNAc", "outline": "as §1"}, "[8]": {"biological_target": "GlcNAc(b1-4)[GlcNAc(b1-6)]GalNAc", "outline": "as §1"}, "[9]": {"biological_target": "GlcNAc(b1-6)Gal(b1-4)GlcNAc", "outline": "as §1"}, "GlcNAc(b1-6)GalNAc": {"biological_target": "GlcNAc(b1-6)GalNAc", "outline": "as §1"}, "GlcNAc3Prop(b1-4)GlcNAc": {"biological_target": "GlcNAc3Prop(b1-4)GlcNAc", "outline": "as §1"}, "[10]": {"biological_target": "GlcNAc6S(b1-3)Gal(b1-4)GlcNAc", "outline": "as §1"}, "Kdn(a2-3)Gal(b1-3)GalNAc": {"biological_target": "Kdn(a2-3)Gal(b1-3)GalNAc", "outline": "as §1"}, "Kdn(a2-3)Gal(b1-3)GlcNAc": {"biological_target": "Kdn(a2-3)Gal(b1-3)GlcNAc", "outline": "as §1"}, "Kdn(a2-3)Gal(b1-4)Glc": {"biological_target": "Kdn(a2-3)Gal(b1-4)Glc", "outline": "as §1"}, "Kdn(a2-3)Gal(b1-4)GlcNAc": {"biological_target": "Kdn(a2-3)Gal(b1-4)GlcNAc", "outline": "as §1"}, "[11]": {"biological_target": "Kdn(a2-3)Gal(b1-4)[Fuc(a1-3)]GlcNAc", "outline": "as §1"}, "Kdn(a2-6)Gal(b1-4)GlcNAc": {"biological_target": "Kdn(a2-6)Gal(b1-4)GlcNAc", "outline": "as §1"}, "[12]": {"biological_target": "Man(a1-2)Man(a1-2)Man(a1-3)Man", "outline": "as §1"}, "[13]": {"biological_target": "Man(a1-2)Man(a1-2)Man(a1-6)[Man(a1-3)]Man", "outline": "as §1"}, "Man(a1-2)Man(a1-3)Man": {"biological_target": "Man(a1-2)Man(a1-3)Man", "outline": "as §1"}, "[14]": {"biological_target": "Man(a1-2)Man(a1-3)[Man(a1-2)Man(a1-6)]Man", "outline": "as §1"}, "[15]": {"biological_target": "Man(a1-2)Man(a1-3)[Man(a1-2)Man(a1-6)]Man(a1-6)[Man(a1-2)Man(a1-2)Man(a1-3)]Man", "outline": "as §1"}, "[16]": {"biological_target": "Man(a1-2)Man(a1-3)[Man(a1-2)Man(a1-6)]Man(a1-6)[Man(a1-2)Man(a1-2)Man(a1-3)]Man(b1-4)GlcNAc(b1-4)GlcNAc", "outline": "as §1"}, "[17]": {"biological_target": "Man(a1-2)Man(a1-3)[Man(a1-6)]Man(a1-6)[Man(a1-2)Man(a1-3)]Man(b1-4)GlcNAc(b1-4)GlcNAc", "outline": "as §1"}, "[18]": {"biological_target": "Man(a1-2)Man(a1-6)[Man(a1-3)]Man(a1-6)[Man(a1-2)Man(a1-2)Man(a1-3)]Man", "outline": "as §1"}, "[19]": {"biological_target": "Man(a1-2)Man(a1-6)[Man(a1-3)]Man(a1-6)[Man(a1-2)Man(a1-2)Man(a1-3)]Man(b1-4)GlcNAc(b1-4)GlcNAc", "outline": "as §1"}, "Man(a1-3)[Man(a1-6)]Man": {"biological_target": "Man(a1-3)[Man(a1-6)]Man", "outline": "as §1"}, "[20]": {"biological_target": "Man(a1-3)[Man(a1-6)]Man(a1-6)[Man(a1-2)Man(a1-3)]Man(b1-4)GlcNAc(b1-4)GlcNAc", "outline": "as §1"}, "[21]": {"biological_target": "Man(a1-3)[Man(a1-6)]Man(a1-6)[Man(a1-3)]Man", "outline": "as §1"}, "[22]": {"biological_target": "Man(a1-3)[Man(a1-6)]Man(a1-6)[Man(a1-3)]Man(b1-4)GlcNAc(b1-4)GlcNAc", "outline": "as §1"}, "[23]": {"biological_target": "Man(a1-3)[Man(a1-6)]Man(b1-4)GlcNAc(b1-4)GlcNAc", "outline": "as §1"}, "[24]": {"biological_target": "Man(a1-3)[Man(a1-6)]Man(b1-4)GlcNAc(b1-4)[Fuc(a1-6)]GlcNAc", "outline": "as §1"}, "Man(a1-6)Man": {"biological_target": "Man(a1-6)Man", "outline": "as §1"}, "Man(b1-4)GlcNAc": {"biological_target": "Man(b1-4)GlcNAc", "outline": "as §1"}, "Neu5Ac(a2-3)Gal": {"biological_target": "Neu5Ac(a2-3)Gal", "outline": "as §1"}}, "note": "This is one part of the list.", "data": [{"binder": "B1", "values": [{"measurement": "glycan array binding signal (z-score)", "setting": "GlcNAc(b1-3)Man", "result": -0.227}, {"measurement": "glycan array binding signal (z-score)", "setting": "[1]", "result": 0.019}, {"measurement": "glycan array binding signal (z-score)", "setting": "[2]", "result": 0.084}, {"measurement": "glycan array binding signal (z-score)", "setting": "[3]", "result": -0.166}, {"measurement": "glycan array binding signal (z-score)", "setting": "[4]", "result": -0.178}, {"measurement": "glycan array binding signal (z-score)", "setting": "GlcNAc(b1-4)GlcNAc", "result": -0.251}, {"measurement": "glycan array binding signal (z-score)", "setting": "[5]", "result": 0.037}, {"measurement": "glycan array binding signal (z-score)", "setting": "[6]", "result": -0.343}, {"measurement": "glycan array binding signal (z-score)", "setting": "[7]", "result": -0.182}, {"measurement": "glycan array binding signal (z-score)", "setting": "[8]", "result": -0.254}, {"measurement": "glycan array binding signal (z-score)", "setting": "[9]", "result": -0.145}, {"measurement": "glycan array binding signal (z-score)", "setting": "GlcNAc(b1-6)GalNAc", "result": -0.05}, {"measurement": "glycan array binding signal (z-score)", "setting": "GlcNAc3Prop(b1-4)GlcNAc", "result": -0.202}, {"measurement": "glycan array binding signal (z-score)", "setting": "[10]", "result": -0.522}, {"measurement": "glycan array binding signal (z-score)", "setting": "Kdn(a2-3)Gal(b1-3)GalNAc", "result": -0.142}, {"measurement": "glycan array binding signal (z-score)", "setting": "Kdn(a2-3)Gal(b1-3)GlcNAc", "result": -0.206}, {"measurement": "glycan array binding signal (z-score)", "setting": "Kdn(a2-3)Gal(b1-4)Glc", "result": -0.24}, {"measurement": "glycan array binding signal (z-score)", "setting": "Kdn(a2-3)Gal(b1-4)GlcNAc", "result": -0.255}, {"measurement": "glycan array binding signal (z-score)", "setting": "[11]", "result": -0.042}, {"measurement": "glycan array binding signal (z-score)", "setting": "Kdn(a2-6)Gal(b1-4)GlcNAc", "result": -0.104}, {"measurement": "glycan array binding signal (z-score)", "setting": "[12]", "result": -0.256}, {"measurement": "glycan array binding signal (z-score)", "setting": "[13]", "result": -0.056}, {"measurement": "glycan array binding signal (z-score)", "setting": "Man(a1-2)Man(a1-3)Man", "result": -0.197}, {"measurement": "glycan array binding signal (z-score)", "setting": "[14]", "result": -0.154}, {"measurement": "glycan array binding signal (z-score)", "setting": "[15]", "result": -0.058}, {"measurement": "glycan array binding signal (z-score)", "setting": "[16]", "result": 0.445}, {"measurement": "glycan array binding signal (z-score)", "setting": "[17]", "result": 0.02}, {"measurement": "glycan array binding signal (z-score)", "setting": "[18]", "result": -0.119}, {"measurement": "glycan array binding signal (z-score)", "setting": "[19]", "result": 0.028}, {"measurement": "glycan array binding signal (z-score)", "setting": "Man(a1-3)[Man(a1-6)]Man", "result": 0.23}, {"measurement": "glycan array binding signal (z-score)", "setting": "[20]", "result": 3.91}, {"measurement": "glycan array binding signal (z-score)", "setting": "[21]", "result": 0.224}, {"measurement": "glycan array binding signal (z-score)", "setting": "[22]", "result": 1.36}, {"measurement": "glycan array binding signal (z-score)", "setting": "[23]", "result": 3.8}, {"measurement": "glycan array binding signal (z-score)", "setting": "[24]", "result": 6.15}, {"measurement": "glycan array binding signal (z-score)", "setting": "Man(a1-6)Man", "result": -0.041}, {"measurement": "glycan array binding signal (z-score)", "setting": "Man(b1-4)GlcNAc", "result": -0.182}, {"measurement": "glycan array binding signal (z-score)", "setting": "Neu5Ac(a2-3)Gal", "result": -0.094}]}]}
